Measurements from the supplement of paper PMC3334620.
Whole data set: some 33,000 sequences, median “E-score (-0.5 to 0.5)” near -0.035, cut for the highest 2% near 0.35. The list shows a part of the results.

What follows are sequences tested against T1, Pdr3 (UniProt P33200) (assay: PBM E-score (8-mer binding enrichment) (E-score (-0.5 to 0.5)); higher = stronger / more preferred TF binding; most listed sequences are background and not binding sites). Settings: protein concentration: 200 nM; construct: GST-full length.
T1 sequence: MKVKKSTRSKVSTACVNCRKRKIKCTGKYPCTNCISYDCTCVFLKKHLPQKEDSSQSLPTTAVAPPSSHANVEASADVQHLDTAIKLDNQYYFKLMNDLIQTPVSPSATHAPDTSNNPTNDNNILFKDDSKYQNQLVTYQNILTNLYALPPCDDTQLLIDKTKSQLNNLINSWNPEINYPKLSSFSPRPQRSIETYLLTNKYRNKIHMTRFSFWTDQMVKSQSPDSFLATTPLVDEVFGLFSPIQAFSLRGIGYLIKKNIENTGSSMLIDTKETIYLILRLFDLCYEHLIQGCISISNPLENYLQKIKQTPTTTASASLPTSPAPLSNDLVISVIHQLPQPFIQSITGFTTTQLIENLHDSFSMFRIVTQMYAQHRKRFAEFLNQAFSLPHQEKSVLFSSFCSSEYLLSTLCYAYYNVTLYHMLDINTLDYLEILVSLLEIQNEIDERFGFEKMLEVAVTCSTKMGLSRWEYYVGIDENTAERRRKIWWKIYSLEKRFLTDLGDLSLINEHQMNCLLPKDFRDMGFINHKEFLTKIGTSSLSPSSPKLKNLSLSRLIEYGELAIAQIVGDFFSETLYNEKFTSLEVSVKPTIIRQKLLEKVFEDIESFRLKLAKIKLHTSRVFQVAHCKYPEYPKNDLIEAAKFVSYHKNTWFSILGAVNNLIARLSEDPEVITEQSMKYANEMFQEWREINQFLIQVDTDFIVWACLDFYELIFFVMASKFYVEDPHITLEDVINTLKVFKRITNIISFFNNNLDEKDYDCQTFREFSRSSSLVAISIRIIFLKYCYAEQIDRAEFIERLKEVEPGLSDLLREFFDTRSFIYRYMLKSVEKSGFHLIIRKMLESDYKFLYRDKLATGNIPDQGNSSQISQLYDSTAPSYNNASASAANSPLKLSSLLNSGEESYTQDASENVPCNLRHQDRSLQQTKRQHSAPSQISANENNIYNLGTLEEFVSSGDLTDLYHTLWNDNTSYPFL
Method in brief: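 Each ungapped eight-base word and its reverse complement, pooled, received an E-score from the Universal PBM Analysis Suite. Underlying scans, normalised with masliner, recorded fluorescent anti-GST bound to GST-tagged yeast transcription factors. These were applied at about 100-200 nM to universal all-10-mer Agilent arrays double-stranded by primer extension.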

| Sequence | PBM E-score |
| --- | --- |
| ATCTTTCC | 0.265 |
| GATACGTA | -0.0921 |
| CCCGTTTC | 0.244 |
| CAGGATAG | -0.0459 |
| AGGTGCCC | -0.0255 |
| ATGAACAT | -0.00606 |
| CAAACTAG | -0.168 |
| ATCTTGGC | -0.0804 |
| GAACAGTC | -0.0175 |
| AGAAAGAG | -0.118 |
| ACTCAGGC | -0.138 |
| CCTGTCAA | -0.219 |
| AGCACCCT | -0.284 |
| GTTATGTA | -0.0105 |
| ATCCATTG | 0.101 |
| GGCATGGA | 0.145 |
| AGCGCCAG | -0.125 |
| CTGAATGC | -0.0711 |
| AACATATC | 0.0881 |
| CGGGAGAC | 0.335 |
| GCTCGGGA | 0.262 |
| AGGAGCTG | 0.0427 |

| Sequence | PBM E-score |
| --- | --- |
| AAGGGCGA | -0.141 |
| TCCAGGGA | -0.18 |
| CACACTCC | -0.114 |
| ACAGGGCG | 0.0375 |
| ATCCCGTG | 0.396 |
| CGCTTGAC | -0.00808 |
| CGTATTAC | 0.0603 |
| GACCCTAA | -0.0397 |
| GAGTTTAA | 0.0984 |
| ATTCAGGG | 0.0218 |
| CGCATTGA | 0.0763 |
| CTCTGAAC | -0.22 |
| CGGATGAC | 0.287 |
| CCGAACAA | 0.24 |
| AAGGTTGA | -0.207 |
| CTCAGCAG | -0.145 |
| CGTTCACA | -0.0297 |
| CACCAGGA | -0.0868 |
| TACGGTGA | -0.161 |
| GCCAGGGC | -0.101 |
| CTCTGCCC | 0.0172 |
| AAGGACTA | -0.193 |

| Sequence | PBM E-score |
| --- | --- |
| AGCGGGCC | 0.057 |
| CGCCCTCC | 0.0638 |
| ACTTCTTC | 0.00457 |
| TCAGAAAA | -0.249 |
| AAGGTCAC | -0.213 |
| CCCCTCTA | -0.265 |
| CCTGCTGA | 0.0336 |
| AACTACAG | -0.023 |
| GAGCAAGC | 0.0185 |
| AATCTAGT | 0.11 |
| AGGGGGAA | -0.265 |
| TAGGGCCA | -0.245 |
| AAAAGTTG | 0.00957 |
| TAGGCTGA | -0.189 |
| CGCCAATC | -0.0518 |
| ACCGTCAG | -0.0359 |
| CAAACTCA | 0.056 |
| CGCAGGAC | 0.0591 |
| CATATATG | -0.135 |
| CGAGGGGC | -0.175 |
| CCCACTCG | 0.00152 |
| ATTAGTTC | 0.0648 |

| Sequence | PBM E-score |
| --- | --- |
| ACCTTTCC | 0.242 |
| TAGAGTCA | -0.109 |
| ATGCTCCC | -0.0872 |
| GTTTTCCA | -0.00276 |
| ATCGGACG | 0.209 |
| GGTGAAGA | -0.0926 |
| ACTAGCGG | 0.0484 |
| CAAGGAAA | 0.00732 |
| ATACAGCA | 0.00398 |
| TACTTGGA | -0.107 |
| GTGACGGA | 0.31 |
| CAGCCGGG | 0.229 |
| TATGTTAA | -0.136 |
| GGCCCTGA | -0.183 |
| CGCGACTA | 0.101 |
| AAAAGACT | -0.222 |
| AATGTCAT | -0.043 |
| GACGAGAC | -0.0318 |
| CGCTCTAA | -0.162 |
| CAAACATA | -0.155 |
